# In the supplement of paper PMC6531468:
# The other results are listed elsewhere or left out. Values come from read counts of a selection and are noisy. Scores sum up all selected molecules that hold the word; the word was not tested alone.
# Tested on: IMP3 KH1-2
# Assay: 6-mer SELEX enrichment z-score vs GST control; IMP3 is the RNA-binding protein IGF2BP3; higher = more enriched by binding
# Settings: construct: KH1-2 (164-376); SELEX round: R4
# Experimental: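 SELEX-seq with GST-tagged IMP3 KH1-2 (Pro164-Phe376) and an N40 RNA pool, round 4 (stringent 300/600 mM KCl washes). 6-mer z-score of sequence-tag enrichment normalised to the corresponding GST SELEX round; RNA k-mers written as DNA (T for U).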
# Sequence of IMP3 KH1-2 (chain, as listed by the source): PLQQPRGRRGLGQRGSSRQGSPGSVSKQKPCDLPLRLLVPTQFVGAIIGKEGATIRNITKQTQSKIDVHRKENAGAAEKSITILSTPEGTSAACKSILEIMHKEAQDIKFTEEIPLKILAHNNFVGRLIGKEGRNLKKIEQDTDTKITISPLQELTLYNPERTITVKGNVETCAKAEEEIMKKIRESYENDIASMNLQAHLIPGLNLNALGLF
row,Sequence,6-mer SELEX enrichment z-score
1,CGACAC,-0.595
2,CTATGC,0.053
3,CTTAAA,-0.106
4,AGACAT,0.353
5,CTAAAA,-0.829
6,GGGGAG,1.59
7,ATGTTC,0.401
8,GGAACT,-0.328
9,ATGCCC,-1.16
10,GATCAG,0.315
11,GGTCCC,-0.582
12,ACACAG,1.85
13,CCCGAA,-2.28
14,CCGGGG,0.819
15,CTCGCG,-0.911
16,GGGCCA,0.136
17,GCGAGT,-0.912
18,ATGGGG,1.54
19,CGCTTC,0.048
20,AGGTCC,-0.125

row,Sequence,6-mer SELEX enrichment z-score
1,TCACAT,1.84
2,GTCAAG,-0.406
3,TTTATT,1.27
4,GGCTGT,0.246
5,CCGCAT,0.684
6,GTCTGG,0.049
7,ACGTGG,-0.493
8,GTAACC,-1.26
9,TACTGT,0.424
10,TACTTG,-0.28
11,GATCTG,-0.087
12,CGAGGG,-0.267
13,AAGCGC,-1.56
14,AAAGTG,-0.636
15,ATGAAA,0.975
16,CACCTT,-0.094
17,TGGCGT,-0.646
18,TCTGGC,-0.029
19,CCAGGA,-0.311
20,GTGCTG,0.14
